Test results from patent publication US20250382361A1, “AFFIBODIES, HYDROGELS CONTAINING AFFIBODIES, AND USES THEREOF” (University of Oregon, priority 2024, published 2025).
pKd: −log10 of the molar value.

What was measured:
PDGF-BB = PDGF-BB (Homo sapiens, UniProt P01127); assay: Biolayer interferometry, affibody vs PDGF; type: binding; design: purchased PeproTech
Experimental: The binding interaction between PDGF and each soluble affibody was measured using a Gator® Plus biolayer interferometer (BLI; Gator Bio). Each soluble His-tagged affibody was diluted to 200 nM in PBS with 0.05% Tween20 (PBST; Thermo Fisher). Recombinant human PDGF-BB was buffer-exchanged into PBS and diluted to concentrations between 0-50 nM in PBST. Ni-NTA coated BLI probes (Gator Bio) were pre-soaked in 250 μL PBST for 45 minutes. The probes were then baselined with 200 μL PBST for 300 seconds and loaded with affibody for 180 seconds or until the wavelength shift plateaued. A new baseline was established using 200 μL PBST for 180 seconds, followed by 600 seconds of association with 200 μL of the various concentrations of rhPDGF-BB and dissociation for 600 seconds in 200 μL PBST.
(§1) Loaded probes were submerged in PBST until the baseline wavelength reading stabilized (approximately 300 seconds). 3.125-1000 nM of soluble VEGF-specific affibodies serially diluted in PBST were associated to the bVEGF-loaded probes for 600 seconds. Probes were then submerged into PBST or 600 seconds to measure dissociation of the affibodies. For measuring binding between PDGF and PDGF-specific affibodies, nitrilotriacetic acid (Ni-NTA) functionalized glass probes (GatorBio) were similarly pre-soaked in PBST, then loaded with 200 nM of PDGF-specific affibodies in PBST for 300 seconds until an approximate wavelength shift of 0.5 nm was achieved. Loaded probes were submerged in PBST until the baseline wavelength reading stabilized (approximately 300 seconds). 1.563-50 nM of soluble PDGF serially diluted in PBST were associated to the affibody-loaded probes for 600 seconds. Probes were then submerged into PBST for 600 seconds to measure dissociation of PDGF. Measurements were also taken of bVEGF loaded onto the streptavidin-functionalized probes without affibodies, affibodies loaded onto Ni-NTA probes without PDGF, and 0.0625-50 nM of PDGF without affibodies loaded onto Ni-NTA probes to subtract background signal from the data. Binding curves were normalized to data from probes loaded with only affibodies and only growth factors using GatorOne software 2.10 (GatorBio).
(§2) Biolayer interferometry (BLI) was also performed using streptavidin-functionalized glass probes to measure binding of affibodies to their off-target proteins.
(§3) Binding curves were fit to a global best-fit, non-linear regression model using GraphPad Prism 10.1.1 in which R^2>0.97 to determine the equilibrium dissociation constant (KD), on-rate constant (koff), and off-rate constant (kon) of each binding interaction.
Rosetta Rational Design Generates PDGF-specific Affibodies with Unique Binding Kinetics: Binding of PDGF to PDGF-specific affibodies was evaluated by loading nickel nitrilotriacetic acid (Ni-NTA)-coated BLI probes with 200 nM of each of the PDGF affibodies, followed by association of 1.563-50 nM of PDGF (FIG. 45G). […] Similar to the VEGF-specific affibody, the lower observed affinity between the original PDGF-specific affibody and PDGF on yeast surface display could be due to increased steric hindrance and decreased mobility of the PDGF-affibody binding interface compared to BLI.

NIH/3T3-Luc cells = assay: PDGF bioactivity luciferase reporter assay; type: cell-based; settings: for luciferase expression vs rhPDGF-BB treatment only: affibody co-incubated with rhPDGF-BB, FIGS. 30C-30F
Experimental: NIH/3T3 fibroblast cells (ATCC) were thawed, seeded at 10,000 cell/cm^2, and expanded in growth medium consisting of DMEM containing 10% (v/v) fetal bovine serum (R&D Systems, Minneapolis, MN). Cultures were routinely maintained at 37° C. and 5% CO2 and passaged at 60-70% confluence. After three passages of expansion, NIH/3T3 cells were grown in Eagle's Minimal Essential Medium (EMEM, ATCC) for a single passage prior to transfection. Transfection mixtures were prepared according to the manufacturer's protocols. Briefly, 2500 ng of luciferase reporter plasmid pGL4.33 [luc2P/SRE/Hygro] (Promega), which contains a serum response element that regulates luciferase expression as a function of Rhoa GTPase activation and multiple mitogen activated phosphorylated kinase (MAPK) pathways, was combined with 12.5 μL of Lipofectamine Plus™ reagent and 227.5 μL of Opti-MEM buffer (Thermo Fisher Scientific, Waltham, MA) and mixed for 10 minutes at room temperature. Concurrently, Lipofectamine Plus™ mix was prepared by combining 14.3 μL of Lipofectamine Plus™ solution with 271.7 μL of Opti-MEM buffer solution for 10 minutes. Lipofectamine Plus™ mix was then combined with Plus Reagent DNA mix at a 1:1 ratio and incubated for an additional 15 minutes. During this step, NIH/3T3 cells were trypsinized and seeded into 96-well plates at 40,000 cells/cm^2 in 135 μl of EMEM. Cells were then transfected by adding 65 μL of Lipofectamine Plus Reagent DNA mix per well and incubated for 48 h at 37° C. and 5% CO2. Individual wells were combined to establish a polyclonal population of transfected cells. Cells were expanded and passaged 4 times between 60-70% confluency in growth medium containing 200 μg/mL hygromycin (selective medium) to remove the transiently transfected population, then continually passaged in selective medium to maintain the stably transfected NIH/3T3 cell population. Stably transfected NIH/3T3 cells, hereafter referred to as NIH/3T3-Luc, were expanded and stored in liquid nitrogen at post-transfection passage 5 until use.
NIH/3T3-Luc cells were seeded at 31,250 cells/cm^2 and incubated in 100 μL of growth medium overnight in 96 well plates. […] Luminescence was then measured using SpectraMax 13 plate reader (Molecular Devices, San Jose, CA).
PDGF bioactivity was assessed using NIH/3T3 cells transfected with a firefly luciferase gene reporter plasmid that links multiple ERK1/2 signaling pathways, including PDGFRβ signaling, to luciferase expression through a serum response element under the regulation of ERK1/2 (FIG. 30A). […] Firefly luciferase expression was assessed via the conversion of 5′-fluoroluciferin to oxyfluoroluciferin, which generates a stable luminescent output correlated to firefly luciferase concentration. […]

HUVECs = assay: VEGF bioactivity HUVEC proliferation assay (CellTiter-Glo); type: cell-based, human; settings: for inhibition of VEGF-induced HUVEC proliferation: 200 ng/ml VEGF pre-incubated with 1, 4, 20, 100, or 500 times molar excess of affibody; for HUVEC proliferation with affibody alone: 19,100 ng/mL affibody, no VEGF, 96 hours
VEGF = target: T1, VEGF (Homo sapiens, UniProt P15692); assay: Biolayer interferometry, soluble affibody vs bVEGF; type: binding; settings: for pKd / koff / kon: BLI, binding to VEGF, global fit; for reduction in affinity for VEGF compared to the original VEGF affibody: BLI data
T1 construct: biotin (label as supplied by the vendor); purchased Acro Biosystems
T1 sequence (P15692 1-191 isoform P15692-4): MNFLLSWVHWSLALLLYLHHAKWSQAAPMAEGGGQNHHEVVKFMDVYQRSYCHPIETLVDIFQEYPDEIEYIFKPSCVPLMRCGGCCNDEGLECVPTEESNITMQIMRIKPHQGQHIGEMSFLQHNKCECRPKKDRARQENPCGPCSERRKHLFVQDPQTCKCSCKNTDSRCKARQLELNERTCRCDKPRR
Experimental: as §1, §2, §3
The weaker affinity observed on yeast surface display was likely due to increased steric hindrance and decreased mobility of the VEGF-affibody binding interface when the affibody was fixed within the yeast surface display construct compared to being freely accessible in solution during BLI.

[1] = Far-UV circular dichroism thermal and pH stability; type: physicochemical
Experimental: Affibody folding stabilities were determined by measuring their far-ultraviolet (UV) circular dichroism (CD) spectra. To assess affibody stability across a range of physiologically relevant pH, affibodies were buffer exchanged into 10 mM Tris at pH 6, 7, 7.4, or 8 and diluted to 0.3 mg/mL. Affibody absorption spectra were then assessed as described above after 4 hours of incubation in the different pH media at room temperature.
To determine affibody melting temperatures, samples were prepared in 10 mM Tris pH 7.4 at 0.3 mg/mL. […] Far-UV spectra were taken before heating at 20° C., at 95° C., and after heating at 20° C. Melting temperatures were determined by fitting the change in 220 nm signal over the temperature range to a Boltzmann sigmoidal curve.
To assess affibody thermal stabilities, affibodies were buffer-exchanged into Tris 10 mM pH 7.4 and diluted to 0.3 mg/mL. To avoid potential freeze/thaw degradation after thermal degradation screening, affibodies were aliquoted and then immediately stored at −80° C. Affibody aliquots were removed from −80° C. and placed at either room temperature, 37° C., or 42° C. for a total of 1, 4, or 7 days. Far-UV spectra were measured as described above for all replicates of each temperature condition and plotted to determine the change in fraction folded compared to a baseline sample.
Affibody folding stabilities were determined by measuring their far-ultraviolet (UV) circular dichroism (CD) spectra.
Within extracellular spaces, bicarbonate and phosphate species within interstitial fluid are the main buffering components regulating pH. Tissue damage caused by chronic disease or injury can result in interstitial fluid pH ranging from 5-8. As such, affibody folding stabilities under variable pH were determined by incubation in 10 mM Tris at pH 6.0, 7.0, 7.4, or 8.0. Affibody folding stabilities under prolonged exposure to temperature treatment conditions were determined by incubation at room temperature (25° C.), physiological temperature (37° C.), and elevated temperature (42° C.) over 7 days (1, 4, or 7 days).

FGF-2 = target: T2, FGF-2 (Homo sapiens, UniProt P09038); assay: Biolayer interferometry, soluble affibody vs bFGF-2; type: binding; settings: 25 nM bFGF-2 on probe; 1000 nM affibody
T2 construct: biotin (label as supplied by the vendor); purchased Acro Biosystems
Description: To further explore the affibody off-target binding observed on yeast surface display, biolayer interferometry (BLI) was used to measure off-target binding between soluble affibodies and proteins.

[2] = BLI, binding to PDGF, global fit

Chain of PDGF-BB (P01127 82-190 limits assumed): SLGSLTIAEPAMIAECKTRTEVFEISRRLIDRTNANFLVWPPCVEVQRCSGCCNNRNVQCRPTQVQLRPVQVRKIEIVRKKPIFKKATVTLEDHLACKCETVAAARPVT
T2 sequence (P09038 134-288): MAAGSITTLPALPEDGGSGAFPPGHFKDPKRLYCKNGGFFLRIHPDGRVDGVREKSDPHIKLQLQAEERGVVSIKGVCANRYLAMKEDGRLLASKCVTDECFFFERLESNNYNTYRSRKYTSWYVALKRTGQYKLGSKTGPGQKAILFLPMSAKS

| Sequence | koff (PDGF-BB; [2]) | kon (PDGF-BB; [2]) | pKd (PDGF-BB; Table 1, engineered PDGF affibodies, values match BLI) | luciferase expression vs rhPDGF-BB treatment only (NIH/3T3-Luc cells) | luminescent signal vs PDGF alone (NIH/3T3-Luc cells; PDGF pre-incubated with 20× molar excess of affibody) | inhibition of VEGF-induced HUVEC proliferation (HUVECs) | HUVEC proliferation with affibody alone (HUVECs) | pKd (VEGF) | koff (VEGF) | kon (VEGF) | reduction in affinity for VEGF compared to the original VEGF affibody (VEGF) | melting temperature (Tm) ([1]; CD at 220 nm, 20 to 95° C., 10 mM Tris pH 7.4) | folding after heating to 95° C. and cooling to 20° C. ([1]; far-UV CD spectra) | binding to bFGF-2 on BLI (specificity) (FGF-2) | binding to bPDGF on BLI (specificity) (PDGF-BB; 25 nM bPDGF on probe, 1000 nM affibody) |
| --- | --- | --- | --- | --- | --- | --- | --- | --- | --- | --- | --- | --- | --- | --- | --- |
| AEAKYAHELWEADWEITNLPNLSPDQLMAFYMALWDDPSQSSELLSEAKKLNDSQAPK [SEQ ID NO: 58] | 0.003107 s⁻¹ | 476,180 M^−1 s^−1 | 8.19 | decreased |  |  |  |  |  |  |  |  |  |  |  |
| AEAKYAKELDDASVEIWDLPNLTPCQKVAFFVALYDDPSQSSELLSEAKKLNDSQAPK [SEQ ID NO: 60] |  |  |  | decreased | significant increase in luminescent signal |  |  |  |  |  |  |  |  |  |  |
| AEAKYNKEWYDAVFVIGSLPNLTEDQKAAFSDALVDDPSQSSELLSEAKKLNDSQAPK [SEQ ID NO: 77] |  |  |  |  |  | inhibited HUVEC proliferation at all doses except for 20× molar excess of affibody | did not induce HUVEC proliferation in the absence of VEGF | 6.34 | 0.00418 s⁻¹ | 9190 M⁻¹ s⁻¹ |  |  |  |  |  |
| AEAKYNKEWYDAVFVIGSLPNLTEDQKDAFSAALVDDPSQSSELLSEAKKLNDSQAPK [SEQ ID NO: 78] |  |  |  |  |  | only inhibited HUVEC proliferation at the highest affibody dose of 500× molar excess to VEGF | did not induce HUVEC proliferation in the absence of VEGF | 3.01 | 0.00769 s⁻¹ | 10.8 M⁻¹ s⁻¹ | 10,000 fold | 56.6 °C | reversible unfolding | negligible binding | negligible binding |
| AEAKYNKEWYDAVFVIGSLPNLTEDQKDAFSDALVADPSQSSELLSEAKKLNDSQAPK [SEQ ID NO: 79] |  |  |  |  |  | only inhibited HUVEC proliferation at the highest affibody dose of 500× molar excess to VEGF | did not induce HUVEC proliferation in the absence of VEGF | 5.69 | 0.008368 s⁻¹ | 4080 M⁻¹ s⁻¹ | 20 fold |  |  |  |  |
